Assay results: PubChem BioAssay (NCI)
“And” between values parts separate entries of the source, which are not always exact repeats. Equal entries are not always repeated.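 The compound was tested at five concentrations on cells cultured in 96-well plates, with a 48-hour exposure period. GI50 = concentration required for 50% inhibition of growth. TGI is the concentration that stops growth completely.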

System: NCI-H322M lung
Test: DTP human tumour cell line panel, 48 h

Row | SMILES | TGI | GI50 [µM]
1 | O=C1CC2CCN(C(=O)c3ccccc3)CC2CCN1 (stereo not given) | > 100 µM | 
2 | COc1cc2c3c(n(CCCN(CCO)CCO)c(=O)c2cc1OC)-c1cc2c(cc1C3=O)OCO2 | 0.815 µM | 0.153
3 | Cc1ccc(C)c(N2C(=O)C(=O)C(c3nc4ccccc4o3)/C(=N\NC(=O)c3ccccc3O)C2=O)c1 (stereo not given) | > 100 µM | 
4 | CNC(C)[C@H]1CCC2C3CC=C4C(=O)[C@@H](NC(=O)C=C(C)C)CC[C@]4(C)C3CC[C@@]21C (stereo not given in full) | 5.4 µM | 2.03
5 | O=C1C=C(Nc2ccc(S(=O)(=O)Nc3nccs3)cc2)c2ccccc2C1=O | > 100 µM | 
6 | C=CCn1c(SCC(=O)Nc2ccc(C(=O)/C=C/c3cc(OC)c(OC)c(OC)c3)cc2)nnc1-c1ccc(OC)cc1 | > 20.6 µM | 1.17
7 | COc1ccc2c(c1)c(-c1nc(-c3c[nH]c4ncccc34)cs1)cn2CCCCN1CCCCC1 | 2.98 µM | 1.56
8 | COC(=O)[C@]12CC[C@@H](C)[C@H](C)[C@@H]1C1=CC[C@@H]3[C@@]4(C)C(C=O)=C[C@@](C)(COC(=O)c5ccco5)[C@@H]4[C@H](O)C[C@@]3(C)[C@]1(C)CC2 | 25.4 µM | 4.74
9 | Cc1[nH]n(-c2nc(O)c(-c3ccccc3)c(=O)[nH]2)c(=O)c1CCO | > 100 µM | 
10 | CC(NC(=O)c1c(O)[nH]c(=S)[nH]c1=O)c1ccc([N+](=O)[O-])cc1 (stereo not given) | > 100 µM | 
11 | Cc1ccc(S(=O)(=O)C2=C(C(C)C)N=NC2(C)C)cc1 | > 100 µM | 
12 | NCCCNCCCCN1CCOC1=O | > 100 µM | 
13 | Oc1ccc(Oc2cnc3ccccc3n2)cc1 | > 100 µM | > 100
14 | c1ccc(NCCSc2nc3ccccc3s2)cc1 | > 100 µM | 
15 | CCOC(=O)CCC1(CCC(=O)OCC)CCCCCCCCC(CCC(=O)OCC)(CCC(=O)OCC)C(=O)C1=O | > 100 µM | 
16 | CC(=O)NC1CONC1=O (stereo not given) | > 100 µM | 
17 | Oc1ccc(N=Nc2nccs2)c(O)c1 | 67.7 µM | 18.2
18 | C[n+]1c2ccccc2c(NC(CCCN=C(N)N)C(=O)O)c2ccccc21 (stereo not given) | > 100 µM | 
19 | COc1ccc2nc3cc(Cl)ccc3c(Sc3ccc(NC(C)=O)cc3)c2c1 | > 52.6 µM | 
20 | CC(Cl)CN1c2ccccc2Sc2ccc(Cl)cc21 (stereo not given) | > 10 µM | 
21 | C[Si](C)(C)CN1C(=O)c2ccccc2C1(O)c1ccccc1 (stereo not given) | > 100 µM | 
22 | C=CCCC1(C)CCCNC1=S (stereo not given) | > 100 µM | 
23 | COC(=O)C1=C(OC)[C@H]2C#C/C=C\C#C[C@@H]3Nc4c(cc(O)c5c4C(=O)c4ccccc4C5=O)[C@]24O[C@@]34[C@H]1C | 0.0438 µM | 
24 | COc1cc2c(cc1OC)C1Cc3cc(OC)c(OC)cc3N1CC2 (stereo not given) | > 100 µM | 
25 | CC(C)(C)OC(=O)N1C2CCCC23O[C@@H]1c1cc2c(cc1C3=O)OCO2 (stereo not given in full) | > 100 µM | 
26 | C=C1C(O)C2C(=C(C)C13CC3)C(=O)C(C)(C)C2OC (stereo not given) | > 100 µM | > 100

Row | SMILES | TGI | GI50 [µM]
27 | O=C1CC(=O)NC(=NN2C(=O)/C(=C/c3ccc(Cl)c(Cl)c3)N=C2c2ccccc2)N1 | > 100 µM | 
28 | CCCC(=O)[O-].CCCC(=O)[O-].NCCN.NCCN.[Co+3].[O-][Cl+3]([O-])([O-])[O-] | > 100 µM | 
29 | Nc1c(C(=O)Nc2ccccc2Cl)sc2nc3c(cc12)C(=O)CCC3 | > 100 µM | 3.02
30 | O=C(CBr)c1ccc2cc(Br)c3ccccc3c2c1 | 71.3 µM | 
31 | CCC(=O)OCN(C)c1nc(N(C)COC(=O)CC)nc(N(C)COC(=O)CC)n1 | > 100 µM | 
32 | CCC1CC(O)c2c(O)c3c(c(O)c2C1O)C(=O)c1cccc(O)c1C3=O (stereo not given) (tested in a mixture with another compound) | 0.132 µM and 0.124 µM | 
33 | CN1C(NNC(=O)c2cccnc2)=NS(=O)(=O)c2cc(Cl)ccc21 | > 100 µM | > 100
34 | O=C1c2ccccc2C(=O)c2c(NCCN=Cc3ccccc3O)cccc21 | 6.95 µM | 2.17
35 | CC1CCC(C(C)(C)c2ccccc2)C(=O)C1 (stereo not given) | > 100 µM | 
36 | COc1ccc(-c2ccc(NNC(=O)c3ccc(F)cc3)nn2)cc1OC | > 100 µM | > 100
37 | C=C1CC[C@H]2C(=O)OC(c3ccoc3)C[C@]2(C)C/C=C\C=C/1C(=O)OC (stereo not given in full) | > 25 µM | 
38 | Cc1noc2c1-c1ccccc1C(c1ccc(Cl)cc1)=N[C@H]2CC(N)=O | > 100 µM | 7.34
39 | O=c1cc(NNc2cccc(Cl)c2)[nH]c(=O)[nH]1 | > 100 µM | 
40 | c1ccc2c(c1)c1ccccc1c1ccccc21 | > 100 µM | > 100
41 | Nc1c(S(=O)(=O)c2ccccc2)c2nc3ccccc3nc2n2c1nc1ccccc12 | > 100 µM | 
42 | Cc1ccc(CSC(N)=Nc2ccccc2)cc1C | 83.7 µM | 
43 | Cc1sc2c(c1C)C(c1ccc(Cl)cc1)=N[C@@H](CC(=O)Nc1ccc(OCCOCCOCCOCCNc3cccc4c3C(=O)N(C3CCC(=O)NC3=O)C4=O)cc1)c1nnc(C)n1-2 (stereo not given in full) | > 100 µM | < 0.0472
44 | COc1ccc(/C=C/c2cnccn2)cc1OC | > 10 µM | 
45 | O=C1C2[C@@H](C(=O)N1c1ccc(Br)cc1)C13C(=CC2([N+](=O)[O-])[C@@H]2C(=O)N(c4ccc(Br)cc4)C(=O)[C@@H]21)c1ccccc1N3c1ccccc1 (stereo not given in full) | > 100 µM | 
46 | COc1cc2c(cc1O)NC(=O)[C@@H]1CCCN1C2=O | > 100 µM | 
47 | COCCn1cnc2c(Cl)nc(Nc3ccccc3)nc21 | 89.6 µM | 
48 | Cc1c2ccc3ccccc3c2c[n+]2ccccc12 | 31.9 µM | 
49 | COc1cc(/C=N\O[Si](C)(C)C(C)(C)C)ccc1O[Si](C)(C)C(C)(C)C | > 100 µM | 
50 | OC(C/C=N/N=C/CC(O)(C(F)(F)Cl)C(F)(F)Cl)(C(F)(F)Cl)C(F)(F)Cl | > 10 µM | 
51 | CCOC(=O)C1=C(N)Oc2c(sc3c(C)cccc23)C1c1ccc(F)cc1 (stereo not given) | 22.2 µM | 6.47
52 | CN1CC=C(c2c(N)nc(N)[nH]c2=O)CC1 | > 100 µM | 

Row | SMILES | TGI | GI50 [µM]
53 | O=P1(Cc2ccccc2)N(Cc2ccccc2)[C@@H]2CCCC[C@H]2N1Cc1ccccc1 | 24 µM | 
54 | C1COCCSC2=C(SCCO1)SC(=C1SC3=C(SCCOCCOCCS3)S1)S2 | > 100 µM | 
55 | CC1=NC(C)(COC(=O)C2(C)NC(C)(CO)CO2)COC1=O (stereo not given) | > 100 µM | 
56 | O=C1/C(=C/N2N=C(c3ccc4ccccc4c3)CC2c2ccccc2O)SC(=S)N1c1cccnc1 (stereo not given) | > 100 µM | 4.91
57 | O=C1CCSCCC(=O)Nc2ccccc2N1 | > 100 µM | 
58 | COC(=O)C(=O)CC(=O)c1cccc(OC)c1 | > 100 µM | 
59 | CCc1nc(Cl)c(Cl)c(Cl)n1 | > 100 µM | 
60 | CCOC(=O)C1=C(Nc2ccc(Br)cc2)OCC1=O | > 100 µM | 
61 | COc1cccc(CC(=O)N2CCN(CCCc3ccccc3)CC2)c1 | > 100 µM | 
62 | NC(=O)CNc1ccc([As]=[As]c2ccc(NCC(N)=O)cc2)cc1 (stereo not given) | 51.2 µM | 16.4
63 | O=C1c2c(Br)sc(Br)c2C(=O)C1(O)O | > 100 µM | 
64 | C/C=C\C(CC(=O)NCC(=O)c1c[nH]c2ccccc12)CC(=O)OC (stereo not given) | > 100 µM | 
65 | CCOC(=O)C(Cc1ccc(O)cc1)Nc1nc(=O)c2c(=O)oc(Cl)cc2o1 (stereo not given) | 36 µM | 
66 | Clc1nc(Cl)c2ncn(Cc3ccccc3Cn3cnc4c(Cl)nc(Cl)nc43)c2n1 | 20.2 µM | 6.4
67 | COc1cc(Nc2nc3cc(C(F)(F)F)ccc3nc2C(=O)O)cc(OC)c1OC | > 100 µM | 
68 | CCCCCCCCCCCCCCCCCCC1=C(O)C(=O)C=C(OC)C1=O | > 100 µM | 
69 | Nc1nc(SCc2ccccc2Cl)c2[nH]cnc2n1 | > 100 µM | 
70 | COc1cccc(-c2nc(-c3cnccn3)n(C/C=C/c3ccccc3)n2)c1 | > 10 µM | 
71 | O=C(NNc1cnccn1)c1nc2cc(F)ccc2n2cccc12 | > 100 µM | 0.59
72 | Cn1cc(-c2csc(-c3cn(C)c4ccc(F)cc34)n2)c2cnccc21 | 3.23 µM | 1.81
73 | Cc1ccc(C)c(N2C(=O)C(=O)C(c3nc4ccccc4o3)/C(=N/N)C2=O)c1 (stereo not given) | > 100 µM | 
74 | CC(=O)OCC1OC(n2c(C)c(N=Nc3ccc(Cl)cc3)c(C)c(C#N)c2=S)C(OC(C)=O)C(OC(C)=O)C1OC(C)=O (stereo not given) | > 100 µM | 
75 | Cn1nnnc1SC(F)(F)c1nc2ccccc2o1 | > 100 µM | 
76 | C=C1C(=O)OC2C1CC(OC(C)=O)/C(C)=C/CCC1(C)OC21 (stereo not given) | > 100 µM | 
77 | CC(=O)Nc1c(C(=N)C#N)ncn1CCO | > 100 µM | 
78 | O=C(CCN1CCOCC1)Nc1cccc(-n2cc(-c3ccncc3)c(-c3ccc(Cl)c(O)c3)n2)c1 | 18.5 µM | 5.14

Row | SMILES | TGI | GI50 [µM]
79 | CN1CCCOC(c2ccc(Cl)cc2)O1 (stereo not given) | > 100 µM | 
80 | C1=NC(N(Cc2ccccc2)Cc2ccccc2)N(Cc2ccccc2)N1 (stereo not given) | 39.3 µM | 
81 | Oc1ccc(/C=C/c2cc(O)cc3c2C(c2cc(O)cc(O)c2)C(c2ccc(O)c(O)c2)O3)cc1 (stereo not given) | > 100 µM | 
82 | CN(C)CCCNc1ccc2ncn3c4ccc(O)cc4c(=O)c1c23 | 14.8 µM | 
83 | CCCCC1C=Cn2c(=O)oc3c(OC(C)C)c(C)c(O)c1c32 (stereo not given) | 12.6 µM | 
84 | O=c1cc(CF)[nH]c(=S)[nH]1 | > 100 µM | 
85 | CCCCCCCCCCCC(=O)OC[C@@H](C[As](=O)(O)O)OC(=O)CCCCCCCCCCC | 23.1 µM | 
86 | CCOc1cc(NC(C)=O)ccc1C(=O)NNS(=O)(=O)c1ccc(NC(C)=O)cc1 | > 100 µM | 
87 | CCOc1ccc(N=Cc2c3ccccc3nc3ccccc23)cc1 | > 100 µM | 
88 | CCc1cccc(C)c1NC(=O)CC1C(=O)Nc2ccccc2S1=O (stereo not given) | > 100 µM | 
89 | NCCN.O=C([O-])[O-].O=C([O-])[O-].[Co+3].[K+] | > 100 µM | > 100
90 | COc1ccc(C2(CC(C)C)CCN(S(=O)(=O)c3ccc(C)cc3)C2)cc1OC (stereo not given) | > 100 µM | 
91 | C/C(=N\NC(=S)N1CCCC1)c1nc2ncccc2[nH]1 | > 100 µM | 
92 | CN(C)CCNC(=O)c1cccc2[nH]c(-c3ccccn3)nc12 | > 100 µM | 
93 | COc1ccc(N2C(=O)C(=O)N(c3ccc(N=Nc4ccccc4)cc3)C2=S)cc1 | 53.6 µM | 
94 | COc1ccc2c(c1)C(C)Cc1c(ncnc1-n1cnc3ccccc31)N2C (stereo not given) | 25 µM | 0.749
95 | O=C(N/N=C/c1ccc(O)cc1O)c1cccnc1 | 56.9 µM | 2.26
96 | CC(=O)c1c(N=[N+]=[N-])c2cccc3c2n(c1=O)CCC3 | 52.8 µM | 
97 | S=C1NCCN1C(=S)Nc1ccccc1 | > 100 µM | 
98 | CCCn1cnc2c(SCc3ccc(Cl)cc3)nc(N)nc21 | 80.3 µM | 
99 | CC(C)(C)c1cc(C(=O)/C=C/c2ccc(C(=O)O)cc2)cc(C(C)(C)C)c1 | 10.3 µM | 
100 | C=CCC1(C)CCCCC1(O)CS(=O)c1ccccc1 (stereo not given) | > 100 µM | 
101 | C[P+](C)(C)c1ccccc1 | > 100 µM | 
102 | O=C(Nc1ccc(Cl)cc1)Nc1nccs1 | > 100 µM | 10.2
103 | Cc1ccnc2c1C(=O)C1=C(OC(C)(C)CC1O)C2=O (stereo not given) | 23.5 µM | 
104 | NC1(CCNC(=O)c2ccccc2)CCN(C(=O)c2ccccc2)CC1 | > 100 µM | 
